Measured values: the supplement of paper PMC4967469
By IC50 is meant the dose at which the fit gives 50% viability; a limit (>, <) means that the fit lies beyond the doses tested. The AUC spans the tested range (256-fold, ending at the top dose) of the same fit; the more sensitive the line, the further below 1. Where the top dose is marked as inferred, it is not printed in the source and was worked back from the curve model.

Columns and labels:
Assay in all cases: Viability of human cancer cell lines after 72 h of drug (GDSC screen)
[1] = compound: C=CC(=O)Nc1cc(NC(=O)c2ccc(C)c(NC(=O)c3ccno3)c2)cc(C(F)(F)F)c1 [QL-XI-92]; conditions: top dose 10.24 µM; top dose inferred
Experimental: (§1)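 Human cancer cell lines in 384-well plates, medium with 10% serum, drug for 72 h over a 256-fold dose range (nine 2-fold or five 4-fold steps up to the top dose). Adherent lines were fixed and stained with the nucleic acid dye Syto60, suspension lines read with resazurin; signal relative to control wells, capped at 0 and 100%. One two-parameter sigmoid per drug and line, fitted in a mixed model over all curves with the slope shared within a line.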

[2] = compound: CCC1=C[C@@H]2CN(C1)Cc1c([nH]c3ccccc13)[C@@](C(=O)OC)(c1cc3c(cc1OC)N(C)[C@H]1[C@@](O)(C(=O)OC)[C@H](OC(C)=O)[C@]4(CC)C=CCN5CC[C@]31[C@@H]54)C2 [Vinorelbine]; conditions: top dose 0.064 µM; top dose inferred
Experimental: as §1

[3] = compound: COc1cc2nccc(Oc3ccc(NC(=O)C4(C(=O)Nc5ccc(F)cc5)CC4)cc3)c2cc1OC [XL-184]; conditions: top dose 5.12 µM; top dose inferred
Experimental: as §1

[4] = compound: COc1cc2ncnc(Nc3cc(Br)c(O)c(Br)c3)c2cc1OC [WHI-P97]; conditions: top dose 10.24 µM; top dose inferred
Experimental: as §1

[5] = compound: N=C(N)NC(=N)NCCc1ccccc1 [Phenformin]; conditions: top dose 4000 µM; top dose inferred
Experimental: as §1

[6] = compound: N[C@@H](CSC(c1ccccc1)(c1ccccc1)c1ccccc1)C(=O)O [S-Trityl-L-cysteine]; conditions: top dose 5.12 µM; top dose inferred
Experimental: as §1

[7] = compound: CNCc1ccc(-c2[nH]c3cc(F)cc4c3c2CCNC4=O)cc1 [AG-014699]; conditions: top dose 5 µM; top dose inferred
Experimental: as §1

[8] = compound: O=c1cc(N2CCOCC2)oc2c(-c3cccc4c3sc3ccccc34)cccc12 [NU-7441]; conditions: top dose 2 µM; top dose inferred
Experimental: as §1

[9] = compound: O=c1cc(CN2CCOCC2)occ1OCCCCCSc1ccnc2cc(C(F)(F)F)ccc12 [EHT 1864]; conditions: top dose 10 µM; top dose inferred
Experimental: as §1

Row | Cell Line | AUC [1] | IC50 [1] | AUC [2] | IC50 [2] | AUC [3] | IC50 [3] | AUC [4] | IC50 [4] | AUC [5] | IC50 [5] | AUC [6] | IC50 [6] | AUC [7] | IC50 [7] | AUC [8] | IC50 [8] | AUC [9] | IC50 [9]
1 | BC-3 (B-cell lymphoma, suspension) | 0.986 | > 10.2 µM | 0.64 | 0.00931 µM | 0.956 | > 5.12 µM | 0.979 | > 10.2 µM | 0.719 | 960 µM | 0.795 | 2.1 µM |  |  |  |  |  | 
2 | CAL-148 (breast, suspension) | 0.986 | > 10.2 µM | 0.684 | 0.0125 µM | 0.988 | > 5.12 µM | 0.981 | > 10.2 µM | 0.696 | 843 µM | 0.78 | 1.94 µM |  |  |  |  |  | 
3 | CP67-MEL (melanoma, adherent) |  |  |  |  |  |  |  |  |  |  | 0.751 | 3.04 µM |  |  |  |  |  | 
4 | Calu-6 (lung adenocarcinoma, adherent) | 0.95 | > 10.2 µM |  |  | 0.927 | > 5.12 µM | 0.958 | > 10.2 µM | 0.475 | 211 µM | 0.58 | 0.546 µM | 0.978 | > 5 µM | 0.984 | > 2 µM |  | 
5 | EW-12 (Ewing sarcoma, suspension) |  |  |  |  |  |  |  |  |  |  | 0.975 | > 5.12 µM |  |  |  |  |  | 
6 | HCC-33 (small cell lung carcinoma, adherent) | 0.85 | 7.92 µM | 0.855 | 0.0521 µM | 0.979 | > 5.12 µM | 0.984 | > 10.2 µM | 0.69 | 859 µM | 0.863 | 4.54 µM |  |  |  |  |  | 
7 | HCE-4 (oesophagus, adherent) | 0.992 | > 10.2 µM | 0.579 | 0.00637 µM | 0.992 | > 5.12 µM | 0.992 | > 10.2 µM | 0.974 | > 4000 µM | 0.592 | 0.55 µM | 0.986 | > 5 µM |  |  | 0.967 | > 10 µM
8 | HEL (acute myeloid leukaemia, semi-adherent) | 0.888 | 8.13 µM | 0.852 | 0.0371 µM | 0.97 | > 5.12 µM | 0.954 | > 10.2 µM | 0.686 | 750 µM | 0.82 | 2.32 µM | 0.992 | > 5 µM |  |  | 0.979 | > 10 µM
9 | Hs-445 (Hodgkin lymphoma, suspension) | 0.852 | 7 µM | 0.498 | 0.00394 µM | 0.969 | > 5.12 µM | 0.964 | > 10.2 µM | 0.703 | 886 µM | 0.734 | 1.4 µM |  |  |  |  |  | 
10 | IST-MES1 (mesothelioma, adherent) | 0.975 | > 10.2 µM | 0.909 | > 0.064 µM | 0.885 | > 5.12 µM | 0.974 | > 10.2 µM | 0.91 | > 4000 µM | 0.94 | > 5.12 µM | 0.943 | > 5 µM |  |  | 0.85 | 7.7 µM
11 | KALS-1 (glioma, adherent) | 0.92 | > 10.2 µM | 0.531 | 0.00501 µM | 0.953 | > 5.12 µM | 0.957 | > 10.2 µM | 0.532 | 315 µM | 0.692 | 1.36 µM | 0.969 | > 5 µM |  |  | 0.94 | > 10 µM
12 | KP-N-RT-BM-1 (neuroblastoma, semi-adherent) |  |  |  |  |  |  |  |  |  |  | 0.904 | > 5.12 µM |  |  |  |  |  | 
13 | LS-411N (large intestine, adherent) | 0.935 | > 10.2 µM |  |  |  |  | 0.979 | > 10.2 µM | 0.375 | 105 µM | 0.723 | 1.6 µM | 0.964 | > 5 µM | 0.971 | > 2 µM | 0.939 | > 10 µM
14 | NCI-H2196 (small cell lung carcinoma, adherent) | 0.983 | > 10.2 µM | 0.904 | > 0.064 µM | 0.908 | > 5.12 µM | 0.984 | > 10.2 µM | 0.446 | 177 µM | 0.956 | > 5.12 µM |  |  |  |  |  | 
15 | NK-92MI (lymphoid neoplasm, suspension) |  |  | 0.943 | > 0.064 µM |  |  |  |  |  |  | 0.804 | 2.36 µM |  |  |  |  |  | 
16 | SKM-1 (haematopoietic neoplasm, suspension) |  |  |  |  |  |  |  |  |  |  | 0.977 | > 5.12 µM | 0.923 | > 5 µM | 0.778 | 0.899 µM | 0.869 | > 10 µM
17 | SU-DHL-1 (anaplastic large cell lymphoma, suspension) | 0.898 | 6.47 µM | 0.997 | > 0.064 µM | 0.997 | > 5.12 µM | 0.997 | > 10.2 µM | 0.607 | 453 µM | 0.996 | > 5.12 µM |  |  |  |  |  | 
18 | SW872 (soft tissue, adherent) | 0.988 | > 10.2 µM | 0.576 | 0.00631 µM | 0.965 | > 5.12 µM | 0.983 | > 10.2 µM | 0.983 | > 4000 µM | 0.675 | 0.932 µM | 0.987 | > 5 µM |  |  | 0.956 | > 10 µM
19 | TALL-1 (T-cell lymphoblastic leukaemia, suspension) | 0.99 | > 10.2 µM | 0.99 | > 0.064 µM | 0.982 | > 5.12 µM | 0.989 | > 10.2 µM | 0.814 | 2050 µM | 0.81 | 2.55 µM |  |  |  |  |  | 
20 | TE-441-T (rhabdomyosarcoma, adherent) | 0.859 | 7.99 µM | 0.806 | 0.031 µM | 0.982 | > 5.12 µM | 0.983 | > 10.2 µM |  |  | 0.854 | 3.78 µM |  |  |  |  |  | 
21 | TGBC24TKB (biliary tract, adherent) | 0.989 | > 10.2 µM | 0.744 | 0.0189 µM | 0.889 | > 5.12 µM | 0.969 | > 10.2 µM | 0.735 | 1110 µM | 0.818 | 2.65 µM | 0.963 | > 5 µM |  |  | 0.95 | > 10 µM
